# In PubChem BioAssay AID1347165 (National Center for Advancing Translational Sciences (NCATS), 2019):
# Among all 220,000 compounds or so, about 5,700 (2.6%) were called active. The inconclusive results got no clear call from the source; some entries with a clear call stand among them for comparison. Calls come from the whole dose curve; as a rule, active = well fitted inhibition curve with a large enough effect; inconclusive = small, poorly fitted or top-dose-only effect; inactive = no such curve, though single readings can be large or run the other way. Potencies beside an inconclusive call are fits to weak or partial responses and may not hold up.
# Target: Lysine-specific demethylase 5B (Homo sapiens) (UniProt Q9UGL1)
# Assay: Primary screen for KDM5B Histone Demethylases FDH-coupled qHTS; note: nearly all actives have a fitted effect of over 70% in size; for activity change, negative = inhibition: 0% is about no effect
# Conditions: FDH-coupled NADH fluorescence (FDH is formaldehyde dehydrogenase); activity change, negative = inhibition: at 57.7 µM (top of the series) unless noted
# In short: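 Here, H3K4me3 peptide (12.5 µM in substrate mix) is demethylated by KDM5BΔAP, 200 nM final, after 10 min compound exposure. Formaldehyde product is coupled through FDH (0.25 U/mL in mix) to NADH fluorescence; 30-min ΔRFU feeds dose-response curves.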
# Potency is the fitted concentration of half-maximal effect; tags give direction and shape of the fitted curve.
# Chain of UniProt Q9UGL1 (Q9UGL1 whole entry, looked up): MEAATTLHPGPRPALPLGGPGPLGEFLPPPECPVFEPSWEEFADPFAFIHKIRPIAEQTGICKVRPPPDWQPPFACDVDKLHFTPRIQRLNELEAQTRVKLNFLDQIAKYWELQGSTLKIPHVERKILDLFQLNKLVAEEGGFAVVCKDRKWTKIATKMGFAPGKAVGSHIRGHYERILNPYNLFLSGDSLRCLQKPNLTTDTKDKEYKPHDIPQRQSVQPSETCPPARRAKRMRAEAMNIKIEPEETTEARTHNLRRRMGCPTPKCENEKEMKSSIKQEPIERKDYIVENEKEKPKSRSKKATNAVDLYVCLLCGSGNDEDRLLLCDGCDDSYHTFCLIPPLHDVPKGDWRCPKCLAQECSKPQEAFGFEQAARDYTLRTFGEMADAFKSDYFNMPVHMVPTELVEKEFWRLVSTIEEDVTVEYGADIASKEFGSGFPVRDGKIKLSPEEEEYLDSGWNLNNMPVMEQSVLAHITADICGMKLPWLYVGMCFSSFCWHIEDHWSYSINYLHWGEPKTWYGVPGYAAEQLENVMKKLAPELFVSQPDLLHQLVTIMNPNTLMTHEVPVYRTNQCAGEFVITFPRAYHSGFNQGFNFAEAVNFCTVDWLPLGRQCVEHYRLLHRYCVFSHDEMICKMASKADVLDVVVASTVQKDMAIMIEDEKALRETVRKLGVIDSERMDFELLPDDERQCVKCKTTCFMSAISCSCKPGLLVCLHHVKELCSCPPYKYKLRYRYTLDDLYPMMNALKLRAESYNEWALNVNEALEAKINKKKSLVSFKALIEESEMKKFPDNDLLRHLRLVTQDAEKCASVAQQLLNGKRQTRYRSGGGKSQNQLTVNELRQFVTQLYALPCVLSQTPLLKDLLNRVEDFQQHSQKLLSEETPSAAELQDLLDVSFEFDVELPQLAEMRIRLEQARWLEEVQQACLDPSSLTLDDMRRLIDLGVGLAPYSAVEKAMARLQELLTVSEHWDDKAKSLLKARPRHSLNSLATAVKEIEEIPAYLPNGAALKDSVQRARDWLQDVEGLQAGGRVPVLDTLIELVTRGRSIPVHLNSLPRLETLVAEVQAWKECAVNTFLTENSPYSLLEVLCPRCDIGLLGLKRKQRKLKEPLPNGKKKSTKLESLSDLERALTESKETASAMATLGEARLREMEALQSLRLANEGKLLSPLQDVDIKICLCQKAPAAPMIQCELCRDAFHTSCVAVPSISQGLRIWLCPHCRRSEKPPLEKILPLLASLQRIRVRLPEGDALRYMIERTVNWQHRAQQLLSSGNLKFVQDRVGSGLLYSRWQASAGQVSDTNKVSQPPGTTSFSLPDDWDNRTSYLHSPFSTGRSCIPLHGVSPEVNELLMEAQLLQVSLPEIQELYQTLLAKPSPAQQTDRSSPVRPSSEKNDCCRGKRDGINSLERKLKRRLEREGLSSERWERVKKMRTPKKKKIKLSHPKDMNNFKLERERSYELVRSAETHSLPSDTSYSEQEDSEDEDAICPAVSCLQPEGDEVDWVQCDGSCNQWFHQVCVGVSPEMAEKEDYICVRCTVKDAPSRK
SMILES,"activity change, negative = inhibition",Potency
CCN(CC)CCNC(=O)c1ccc(CN2CC(=O)N3CCCC3C2=O)cc1 (stereo unspecified),inactive: -11.7%,
CCN(C(=O)c1cc2c(=O)[nH]c3ccc(C)cc3c2s1)c1ccccc1F,,"inconclusive: 25.1 µM [inhibitor, partial curve, poor fit]"
Cc1ccccc1Nc1nn2c(=O)c3ccc(C(=O)NCc4cccs4)cc3nc2s1,,"inconclusive: 4.47 µM [inhibitor, full curve, poor fit]"
O=C(NCCc1ccc(Cl)cc1)c1nc(-c2cccnc2)c2cnccn12,,active: 25.1 µM
CCC(=O)N1CCc2c(sc3ncnc(N4CCN(C)CC4)c23)C1,,"inconclusive: 31.6 µM [inhibitor, single point]"
CC(C)(C)C(=O)N1CCC2(CC1)NCCc1c2[nH]c2ccccc12,,"inconclusive: 28.2 µM [inhibitor, partial curve, poor fit]"
O=C(Nc1ccc(F)c(S(=O)(=O)N2CCOCC2)c1)c1ccccc1-c1ccccc1,inactive: 13.5%,
COCCN1C(=O)C(O)=C(C(=O)c2ccc(C)o2)C1c1ccc(O)c(OC)c1 (stereo unspecified),inactive: -14.1%,
COc1cccc(-c2nc(CN3CCCC3=O)no2)c1,inactive: -6.62%,
CC(=O)NCc1ccc(-c2csc(-c3ccccc3C)n2)o1,,"inconclusive: 39.8 µM [inhibitor, single point]"
Cc1ccc(CNC2c3ccccc3-c3ccccc32)cc1,inactive: -19.2%,
CCCn1c(=O)[nH]c(=O)c2c1nc(CCc1ccccc1)c(=O)n2CCOC,,"inconclusive: 28.2 µM [inhibitor, partial curve, poor fit]"
CC(NC(=O)C1CCCCC1)c1ccccc1 (stereo unspecified),inactive: 15.9%,
CN(C)c1ccc(CNC(=O)CN2C(=O)C3CCCCN3c3ccc(C(=O)N4CCCC4)cc32)cc1 (stereo unspecified),,"inconclusive: 25.1 µM [inhibitor, partial curve, poor fit]"
Cc1ccc(S(=O)(=O)c2nc(-c3ccccc3F)oc2N2CC(C)OC(C)C2)cc1 (stereo unspecified),,"inconclusive: 25.1 µM [inhibitor, single point]"
O=C(NCCCc1ccccc1)c1cc(=O)[nH]c2ccccc12,,"inconclusive: 22.4 µM [inhibitor, partial curve, poor fit]"
COc1ccc(CCNc2ncnc3c2cnn3-c2ccc(C)c(Cl)c2)cc1,,"inconclusive: 25.1 µM [inhibitor, partial curve, poor fit]"
CCOc1ccc(CC(=O)N2CCCN(c3cc(-c4ccc(OC)cc4)[nH]n3)CC2)cc1OCC,,"inconclusive: 28.2 µM [inhibitor, partial curve, poor fit]"
N#Cc1nc(-c2ccccc2)oc1NCc1ccc2c(c1)OCO2,,"inconclusive: 28.2 µM [inhibitor, partial curve, poor fit]"
CCCNC(=O)C(C)NC(=O)Cc1c(C)nc2nc(N)nn2c1C (stereo unspecified),,"inconclusive: 31.6 µM [inhibitor, partial curve, poor fit]"
COc1ccc(-c2cc(N3CCC(NC(=O)c4ccc(F)c(Cl)c4)C3)n[nH]2)cc1 (stereo unspecified),,"inconclusive: 5.01 µM [inhibitor, partial curve]"
Cc1c(C(=O)OCC(=O)N(C)Cc2ccccc2)oc2ccccc12,inactive: -14.2%,

SMILES,"activity change, negative = inhibition",Potency
CN(Cc1cccc(CCN)c1)Cc1cccc2ncccc12,inactive: -15.2%,
O=C(c1ccc2c(c1)OCO2)N1C[C@@H](CO)[C@H](c2nc(C3CC3)no2)C1,inactive: -15.9%,
Cc1nc2cc(NC(=O)c3cc(S(=O)(=O)Nc4ccc(C)c(C)c4)ccc3Cl)ccc2o1,inactive: 5.27%,
COc1cccc(N2CCN(C(=O)c3cnn(-c4ccccc4Cl)c3C3CCN(C(=O)OC(C)(C)C)CC3)CC2)c1,,"inconclusive: 31.6 µM [inhibitor, single point]"
CCCCc1ccc(NS(=O)(=O)c2cc3c4c(c2)CC(=O)N4CCC3)cc1,,"inconclusive: 11.2 µM [inhibitor, partial curve, poor fit]"
CCN(CC)c1cc(CCC(=O)NCCc2cccnc2)ccn1,,"inconclusive: 14.1 µM [inhibitor, partial curve, poor fit]"
CCCCn1nc(C(=O)N2CCN(c3ccccc3)CC2)c2ccccc2c1=O,inactive: -13.5%,
CCCCCCCC1C(C#N)=C(N)SC(N)=C1C#N,,"inconclusive: 39.8 µM [inhibitor, single point]"
CCc1ccc2oc(-c3cc(NC(=O)c4cc(OC)c(OC)c(OC)c4)ccc3O)nc2c1,,"inconclusive: 35.5 µM [inhibitor, single point]"
COc1ccc2[nH]c3c(c2c1)CCNC31CCN(Cc2ccc(F)cc2F)CC1,,active: 11.2 µM
COc1cc(NC(=O)CCC2CCN(C(=O)c3ccccc3)CC2)cc(OC)c1,inactive: -16.1%,
Cn1cnc(C(=O)O)c1,inactive: -44.5%,
O=C(N[C@@H]1CN(C2CCSCC2)C[C@H]1CO)c1cccnc1,,"inconclusive: 14.1 µM [inhibitor, partial curve]"
Cc1cc(-c2nccc3c(=O)cc(N(C)C)oc23)ccn1,,active: 31.6 µM
Cc1[nH]n(-c2nc3ccccc3[nH]2)c(=O)c1C1OC(=O)c2ccccc21 (stereo unspecified),,"inconclusive: 25.1 µM [inhibitor, single point]"
CC(=O)N1CCCCC1c1nnc2n1CCNC2 (stereo unspecified),,"inconclusive: 112 µM [inhibitor, partial curve, poor fit]"
COc1ccc(-c2c(C)c3cc(OS(=O)(=O)c4ccc(C)cc4)ccc3oc2=O)cc1OC,,"inconclusive: 25.1 µM [inhibitor, partial curve, poor fit]"
O=C(Nc1ccc2nc(SCc3ccc(Br)cc3)sc2c1)C1CCCCC1,inactive: -1.68%,
Cc1cccc(OCC2CCCN(C(=O)c3ccc4nc(C)cn4c3)C2)c1 (stereo unspecified),,"inconclusive: 17.8 µM [inhibitor, single point]"
C=CCOc1ccc(NC(=O)c2ccc(OC)cc2)cc1,inactive: -7.29%,
O=C(COc1ccc2ccc(=O)oc2c1)Nc1ccc(N2CCOCC2)cc1,,"inconclusive: 28.2 µM [inhibitor, single point]"
COc1cc(NC(=O)C2CCN(c3cnccn3)CC2)cc(OC)c1,,"inconclusive: 28.2 µM [inhibitor, partial curve, poor fit]"

SMILES,"activity change, negative = inhibition",Potency
COc1ccccc1-c1cccc2c3c([nH]c12)[C@@H]1C[C@H]2[C@@H](CN1CC3)[C@H](C)ON2C,,"inconclusive: 20 µM [inhibitor, partial curve, poor fit]"
O=C(Nc1cccc(-c2nc3ccccc3o2)c1)c1cc([N+](=O)[O-])ccc1Cl,inactive: 18.9%,
CN1CC(=O)N(C2CNC2)Cc2c(NCC3CC3)ncnc21,,"inconclusive: 112 µM [inhibitor, partial curve, poor fit]"
CCCc1cc(CNC(=O)c2ccc(N3CCCN(CCC)CC3)nc2)on1,,"inconclusive: 12.6 µM [inhibitor, partial curve]"
COc1cccc(-c2cn3c(n2)sc2cc(C(=O)NC4CCCCC4)ccc23)c1,,"inconclusive: 6.31 µM [inhibitor, partial curve, poor fit]"
COc1cc2c(cc1OC)C(C[C@H]1CN(S(=O)(=O)c3ccccc3)CC[C@H]1CC(=O)O)=NCC2,,active: 25.1 µM
Cc1cccc(CN2CCCCCNC(=O)[C@@H]3CCC[C@@H]32)c1,,"inconclusive: 11.2 µM [inhibitor, partial curve, poor fit]"
CCN(CCCNC(=O)c1cc2c(=O)n(C)c3ccccc3c2s1)c1ccccc1,,"inconclusive: 28.2 µM [inhibitor, single point]"
CCOc1ccccc1CN1CCC[C@H]1C(=O)N1CCCCCCNC(=O)CC1,,"inconclusive: 28.2 µM [inhibitor, single point]"
CCCCN(Cc1cc2cc(OC)ccc2[nH]c1=O)S(=O)(=O)c1ccccc1,,"inconclusive: 31.6 µM [inhibitor, partial curve, poor fit]"
O=C(c1cccc(F)c1)N1CCCC(Cc2noc(-c3ccccc3)n2)C1 (stereo unspecified),inactive: -23%,
CN1CC(=O)N(C2CCCNCC2)Cc2c1ncnc2N1CCN(c2ncccn2)CC1 (stereo unspecified),,"inconclusive: 50.1 µM [inhibitor, partial curve]"
CCC(=O)Nc1ccc(-c2nc3cc(Cl)ccc3o2)cc1,,"inconclusive: 1.78 µM [inhibitor, partial curve, poor fit]"
COCCc1noc(-c2ccccc2OC2CN(C(=O)C(C)C)C2)n1,,"inconclusive: 20 µM [inhibitor, partial curve, poor fit]"
Cc1ccc(S(=O)(=O)Nc2ccc3nc(-c4cccc(Cl)c4)oc3c2)cc1,,"inconclusive: 5.01 µM [inhibitor, full curve, poor fit]"
Fc1ccc(CN2Cc3[nH]cnc3C[C@H]2c2nc(-c3ccccc3)no2)cc1,inactive: -13.7% [at 86.2 µM],
COc1ccc(-c2nc(C#N)c(NC3CCCCC3)o2)cc1,,"inconclusive: 2 µM [inhibitor, full curve, poor fit]"
CCC(=O)N1CCc2cc(S(=O)(=O)NC(Cc3ccccc3)C(=O)O)ccc21 (stereo unspecified),,"inconclusive: 17.8 µM [inhibitor, single point]"
O=C(OCC(=O)c1cccs1)c1ccc(O)cc1,inactive: 2.18%,
CCN(CC)CCCNC(=O)CCC(=O)Nc1ccc2nc(N3CCCCC3)cc(C)c2c1,,"inconclusive: 25.1 µM [inhibitor, partial curve, poor fit]"
Cc1ccc(CNC(=O)c2cnc3c(-c4ccc(F)cc4)c(C)nn3c2C)o1,,"inconclusive: 50.1 µM [inhibitor, single point]"
COc1ccc2nc(C)cc(SCC(NC(=O)CN(C)C)C(=O)O)c2c1 (stereo unspecified),,"inconclusive: 39.8 µM [inhibitor, single point]"
